IC50 is the fitted dose that halves viability relative to control wells, and lower means more sensitive; a fit beyond the top or the lowest dose is shown as a bound at that dose. The AUC spans the tested range (256-fold, ending at the top dose) of the same fit; the more sensitive the line, the further below 1. For some of these results: Where the top dose is marked as inferred, it was calculated from the reported fits.
Legend:
Assay in all cases: Viability of human cancer cell lines after 72 h of drug (GDSC screen)
[1] = compound: COC1=CC(c2cc3ccccc3[nH]2)=N/C1=C\c1[nH]c(C)cc1C [Obatoclax mesylate]; details: top dose 16 µM
Method: (§1)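 Human cancer cell lines in 384-well plates, medium with 10% serum, drug for 72 h over a 256-fold dose range (nine 2-fold or five 4-fold steps up to the top dose). Adherent lines were fixed and stained with the nucleic acid dye Syto60, suspension lines read with resazurin; signal relative to control wells, capped at 0 and 100%. One two-parameter sigmoid per drug and line, fitted in a mixed model over all curves with the slope shared within a line.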

[2] = compound: COCC(=O)NC/C=C/c1ccc2ncnc(Nc3ccc(Oc4ccc(C)nc4)c(C)c3)c2c1 [CP724714]; details: top dose 10.24 µM; top dose inferred
Method: as §1

[3] = compound: Cc1cccc(Nc2nc(-c3ccncc3)cs2)c1 [STF-62247]; details: top dose 10.24 µM; top dose inferred
Method: as §1

[4] = compound: Cc1cnc(CNC(=O)c2c(=O)c3ccc(N4CCCN(C)CC4)nc3n3c2sc2ccccc23)cn1 [CX-5461]; details: top dose 10.24 µM; top dose inferred
Method: as §1

## A375 (melanoma, adherent)
[1]
  AUC: 0.023
  IC50: < 0.0625 µM
[2]
  AUC: 0.991
  IC50: > 10.2 µM
[3]
  AUC: 0.989
  IC50: > 10.2 µM
[4]
  AUC: 0.818
  IC50: 4.51 µM

## A427 (non-small cell lung carcinoma, adherent)
[1]
  AUC: 0.172
  IC50: 0.1 µM
[2]
  AUC: 0.979
  IC50: > 10.2 µM
[3]
  AUC: 0.955
  IC50: > 10.2 µM
[4]
  AUC: 0.908
  IC50: > 10.2 µM

## A431 (skin, adherent)
[1]
  AUC: 0.14
  IC50: 0.0802 µM
[2]
  AUC: 0.947
  IC50: > 10.2 µM
[3]
  AUC: 0.987
  IC50: > 10.2 µM
[4]
  AUC: 0.449
  IC50: 0.466 µM

## A498 (kidney, adherent)
[1]
  AUC: 0.979
  IC50: > 16 µM
[2]
  AUC: 0.974
  IC50: > 10.2 µM
[3]
  AUC: 0.972
  IC50: > 10.2 µM
[4]
  AUC: 0.977
  IC50: > 10.2 µM

## A673 (rhabdomyosarcoma, adherent)
[1]
  AUC: 0.463
  IC50: 0.8 µM
[2]
  AUC: 0.984
  IC50: > 10.2 µM
[3]
  AUC: 0.988
  IC50: > 10.2 µM
[4]
  AUC: 0.99
  IC50: > 10.2 µM

## A2058 (melanoma, adherent)
[1]
  AUC: 0.136
  IC50: 0.0861 µM
[2]
  AUC: 0.982
  IC50: > 10.2 µM
[3]
  AUC: 0.984
  IC50: > 10.2 µM
[4]
  AUC: 0.99
  IC50: > 10.2 µM

## A2780 (ovary, semi-adherent)
[1]
  AUC: 0.286
  IC50: 0.241 µM
[2]
  AUC: 0.927
  IC50: > 10.2 µM
[3]
  AUC: 0.918
  IC50: > 10.2 µM
[4]
  AUC: 0.542
  IC50: 0.839 µM

## ABC-1 (lung adenocarcinoma, adherent)
[1]
  AUC: 0.404
  IC50: 0.516 µM
[2]
  AUC: 0.902
  IC50: > 10.2 µM
[3]
  AUC: 0.982
  IC50: > 10.2 µM
[4]
  AUC: 0.935
  IC50: > 10.2 µM

## ACHN (kidney, adherent)
[1]
  AUC: 0.209
  IC50: 0.12 µM
[2]
  AUC: 0.944
  IC50: > 10.2 µM
[3]
  AUC: 0.962
  IC50: > 10.2 µM
[4]
  AUC: 0.907
  IC50: > 10.2 µM

## AGS (stomach, adherent)
[1]
  AUC: 0.343
[2]
  AUC: 0.981
  IC50: > 10.2 µM
[3]
  AUC: 0.99
  IC50: > 10.2 µM
[4]
  AUC: 0.972
  IC50: > 10.2 µM

## AN3-CA (endometrium, adherent)
[1]
  AUC: 0.247
  IC50: 0.172 µM
[2]
  AUC: 0.982
  IC50: > 10.2 µM
[3]
  AUC: 0.985
  IC50: > 10.2 µM
[4]
  AUC: 0.985
  IC50: > 10.2 µM

## ASH-3 (thyroid, adherent)
[1]
  AUC: 0.297
  IC50: 0.269 µM
[2]
  AUC: 0.985
  IC50: > 10.2 µM
[3]
  AUC: 0.988
  IC50: > 10.2 µM
[4]
  AUC: 0.988
  IC50: > 10.2 µM

## AU565 (breast, adherent)
[1]
  AUC: 0.367
  IC50: 0.411 µM
[2]
  AUC: 0.759
  IC50: 3.96 µM
[3]
  AUC: 0.98
  IC50: > 10.2 µM
[4]
  AUC: 0.984
  IC50: > 10.2 µM

## AsPC-1 (pancreas, adherent)
[1]
  AUC: 0.744
  IC50: 8.43 µM
[2]
  AUC: 0.969
  IC50: > 10.2 µM
[3]
  AUC: 0.967
  IC50: > 10.2 µM
[4]
  AUC: 0.952
  IC50: > 10.2 µM

## BCPAP (thyroid, adherent)
[1]
  AUC: 0.102
  IC50: < 0.0625 µM
[2]
  AUC: 0.988
  IC50: > 10.2 µM
[3]
  AUC: 0.987
  IC50: > 10.2 µM
[4]
  AUC: 0.955
  IC50: > 10.2 µM

## BEN (non-small cell lung carcinoma, adherent)
[1]
  AUC: 0.514
  IC50: 1.1 µM
[2]
  AUC: 0.97
  IC50: > 10.2 µM
[3]
  AUC: 0.967
  IC50: > 10.2 µM
[4]
  AUC: 0.984
  IC50: > 10.2 µM

Reference: the supplement of paper PMC4967469
